In PubChem BioAssay AID488969 (Vanderbilt High Throughput Screening Facility, 2010) one finds z-score data, which are given here for 71 compounds.

Molecules are shown by their SMILES. The full ranking holds about 110,000 compounds; the median of “z-score” is about -0.1, and the highest 2% start at about 2. Some of the results follow.

The experiment concerns the target Metabotropic glutamate receptor 8 (Rattus norvegicus) (UniProt P70579). Put plainly: mGluR8 Gi/Go-coupled signaling modulation – cell-based, rat, thallium flux, HTS, primary screen (AID 488969). Conditions: HEK293 rat mGluR8, GIRK (G protein-gated inwardly rectifying potassium channel) thallium flux, FluoZin2; at 10 µM; stronger effect = higher value; submaximal glutamate (EC20) added with thallium.
UniProt P70579, sequence (P70579 whole entry, looked up): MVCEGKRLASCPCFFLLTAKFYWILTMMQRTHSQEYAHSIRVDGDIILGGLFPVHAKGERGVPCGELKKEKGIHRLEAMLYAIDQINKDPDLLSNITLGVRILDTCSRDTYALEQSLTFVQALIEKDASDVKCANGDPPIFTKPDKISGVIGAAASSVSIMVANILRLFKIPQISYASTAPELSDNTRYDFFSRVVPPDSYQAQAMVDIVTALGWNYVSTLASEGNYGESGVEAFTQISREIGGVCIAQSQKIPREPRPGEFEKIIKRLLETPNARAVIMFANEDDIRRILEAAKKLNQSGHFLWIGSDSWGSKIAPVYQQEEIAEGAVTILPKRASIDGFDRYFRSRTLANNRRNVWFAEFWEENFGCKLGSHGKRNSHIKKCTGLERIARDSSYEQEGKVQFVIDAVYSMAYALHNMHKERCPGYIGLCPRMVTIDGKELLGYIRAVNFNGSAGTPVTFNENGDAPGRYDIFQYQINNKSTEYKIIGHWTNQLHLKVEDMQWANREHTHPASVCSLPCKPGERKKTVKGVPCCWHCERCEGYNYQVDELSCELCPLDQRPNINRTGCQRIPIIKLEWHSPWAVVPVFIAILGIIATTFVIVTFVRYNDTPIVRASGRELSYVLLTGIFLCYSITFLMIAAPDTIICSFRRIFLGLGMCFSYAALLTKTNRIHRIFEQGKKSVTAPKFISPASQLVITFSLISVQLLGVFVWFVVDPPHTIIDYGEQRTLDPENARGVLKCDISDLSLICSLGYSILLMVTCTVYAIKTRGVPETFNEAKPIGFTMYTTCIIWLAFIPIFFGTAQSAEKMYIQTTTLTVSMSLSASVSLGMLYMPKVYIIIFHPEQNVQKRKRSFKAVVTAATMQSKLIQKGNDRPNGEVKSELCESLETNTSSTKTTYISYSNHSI
In the case of `O=C(CN1C(=O)c2cccc3cccc1c23)NCc1ccccn1`, the z-score is -0.247.

On to `O=C(Nc1ccc2c(c1)OCO2)c1c(Cl)nc2sccn12`, for which the z-score was -0.167. The result for `Cc1ccc2c(c1)C(O)(CC(=O)c1cccnc1)C(=O)N2` (stereo unspecified) reads 0.195; that for `Cc1c(NC(=O)c2ccc(Cl)s2)c(=O)n(-c2ccccc2)n1C`, -0.0691; that for `CCCNC(=S)N1CCC(NC(=O)C23CC4CC(CC(C4)C2)C3)CC1`, -0.385. Next, `COc1ccc(S(=O)(=O)NCCSCc2ccco2)cc1OC`: -0.152; `CCc1ccc[n+](-c2[nH]c(=O)sc2/C=N/NC([S-])=Nc2ccccc2)c1`: -0.612; `Cc1ccc(C(=O)NNC(=O)C2CCN(Cc3ccc(Cl)c(Cl)c3)CC2)cc1`: -0.0746. Next, `Cc1cc2n(n1)SC(Nc1ccc(F)c(Cl)c1)N2` (stereo unspecified): 0.258.

`Cc1nn(-c2nc3ccccc3[nH]2)c(N)c1-c1ccccc1` displayed a z-score of 1.36. Next, `O=C(NCc1ccco1)c1ccc(Cl)c(S(=O)(=O)N2CCc3ccccc32)c1`: -0.377; `COc1ccc(C2=NOC(C(=O)NCc3cccs3)C2)cc1OC` (stereo unspecified): -0.236. Next, `O=C(Cn1ccccc1=O)c1cccs1`: -0.75; `CCN(CC)S(=O)(=O)c1cc([N+](=O)[O-])ccc1NNC(=O)Nc1ccccc1`: 0.283. On to `COc1ccc(-n2nnnc2SCC(=O)c2ccc3c(c2)OCCO3)cc1`, for which the z-score came to 0.112.

With `O=C(CN(Cc1cccs1)C(=O)CN1C(=O)COc2ccccc21)NCc1ccco1`, the z-score was -0.343. Next, `CC(=O)OC(C#CCN1CCOCC1)c1ccccc1` (stereo unspecified): -0.274; `O=C1C(Cl)=C(NCCCN2CCOCC2)C(=O)N1CCc1ccccc1`: -0.296. The result for `Cc1nc2ccc(C(C(F)(F)F)(C(F)(F)F)C(F)(F)F)cc2[nH]1` reads 0.0207. `O=C(O)C1CC=CCC1C(=O)Nc1cccc(Cl)c1Cl` (stereo unspecified) came in with a z-score of 0.614.

As for `CCNc1ccc(C(=O)OCC(=O)c2cc(C)n(Cc3ccc4c(c3)OCO4)c2C)cc1[N+](=O)[O-]`, the z-score is -0.128. Regarding `CC(C)C(=O)NC(=S)Nc1ccccc1F`, the z-score is -0.159. Next, `O=C(Nc1ccc(OC(=O)c2cccnc2)cc1)c1cccnc1`: -0.561; `Cc1ccc(NC2=Nc3ccccc3CC2)cc1`: 0.374. Next, `Cc1ccc2nc(NC(=O)c3cc(-c4ccco4)nc4ccccc34)sc2c1`: -0.874. Next, `COc1ccc(CN2C(=O)c3cccnc3C2O)cc1` (stereo unspecified): 0.0391; `O=C(Nc1ccccc1)N(CCN1CCOCC1)Cc1cccc(Cl)c1`: 0.391. For the compound `Cc1cccc(/C=N/NC(=O)c2cc3c(s2)-c2ccccc2CC3)c1`, the z-score turned out to be 0.103. `Cc1ccc(NC2SC(=O)N(CC(=O)O)C2=O)cc1` (stereo unspecified): the z-score came out at 0.401. Regarding `COc1ccc(CC(=O)NNC(=O)c2cccs2)cc1`, the z-score is -0.223. Next, `O=C(/C=C/c1cccc([N+](=O)[O-])c1)NCC1CCCO1` (stereo unspecified): -0.0579; `C(=C\c1ccccc1)/CSc1nnc(-c2cnccn2)n1Cc1ccco1`: -1.46. Next, `CCOC(=O)CC(=O)CSc1nc(C)cc(C)c1C#N`: -0.421; `CCOC(=O)N1CCN(c2ncnc3c2cnn3-c2ccc(OC)cc2)CC1`: -0.81. In the case of `O=C1c2ccccc2C(=O)N1CC#CCN1CCN(C(c2ccccc2)c2ccccc2)CC1`, the z-score turned out to be 0.979.

In turn, `CC(=O)c1nn(-c2ccccc2)cc1C(=O)c1cccc(Br)c1` had a z-score of 0.0368. On to `O=C(Nc1nccs1)c1cn(-c2ccccc2)nc1-c1ccccc1`, for which the z-score was 0.192. On to `COc1ccc(S(=O)(=O)Nc2cc(C(C)C)c(O)cc2C)cc1`, for which the z-score was -0.46. Next, `CC(C)N(C(=O)CSc1nc2c([nH]1)c(=O)n(C)c(=O)n2C)c1ccccc1`: -0.523; `COc1ccc(Oc2nc(C)cc(C)c2S(=O)(=O)c2ccc(C)cc2)cc1`: -0.384. Next, `Nc1nnc(SCCCC(=O)c2ccccc2)s1`: -0.233; `N#C/C(=C\c1ccc(-c2ccccc2[N+](=O)[O-])o1)C(=O)Nc1nc(-c2cccs2)cs1`: 1.35; `COC(=O)Cn1c(=NC(=O)c2cc(OC)c(OC)c(OC)c2)sc2cc(OC)ccc21`: -0.073. The result for `O=C(CN1CCCN(S(=O)(=O)c2ccc(F)cc2)CC1)Nc1ccccc1Br` reads -1.12. On to `CCc1nc(C)cn1S(=O)(=O)c1cc(Br)c(C)cc1OC`, for which the z-score is -0.193. Next, `CN1C(=O)CC(N2CCN(C(c3ccccc3)c3ccccc3)CC2)C1=O` (stereo unspecified): -0.247; `c1ccc(-c2nn3c(C4COc5ccccc5O4)nnc3s2)cc1` (stereo unspecified): -0.342; `CCn1c(=O)c2c(nc3n2CCS3)n(C)c1=O`: -0.382. `CCCC(=O)Nc1ccc(Br)cn1`: the z-score is -0.389. With `O=C(Nc1ccccc1)c1ccc(NCc2ccco2)c(S(=O)(=O)N2CCOCC2)c1`, the z-score was -1.07. Next, `Cc1cccc(N2CCN(C(=O)c3ccccc3NC(=O)C3CC=CCC3C(=O)O)CC2)c1` (stereo unspecified): -0.57; `Cc1ccc(NC(=O)C(OC(=O)c2ccc(NC(N)=O)cc2)c2ccccc2)cc1Cl` (stereo unspecified): -0.199. Next, `CCOC(=O)CSc1nnc(CCCCCN2C(=O)c3cccc4cccc(c34)C2=O)o1`: -0.835; `O=c1c(C=Nc2cccc(C(F)(F)F)c2)c[nH]n1-c1cccc(Cl)n1`: -0.211. The result for `COc1ccc(NC(=O)CNc2cccc(C#N)c2)cc1Cl` reads 1.65; that for `Clc1ccc2[nH]cc(-c3nnnn3-c3ccc4ccccc4c3)c2c1`, 0.0431. Compound `COc1ccc2c(c1)NC1(O)c3ccccc3C(=O)C21O` (stereo unspecified) had a z-score of 0.297. Next, `c1ccc(CSc2nnc(-c3ccco3)n2Cc2ccco2)cc1`: -0.985; `CC(=O)Nc1ccc(C(=O)N/N=C/c2ccccc2OC(=O)c2ccc(Cl)cc2)cc1`: 0.108. Next, `CC(=O)Nc1ccc(Nc2nc(C)nc3c2oc2ccccc23)cc1`: -0.451. Next, `CCCCCCCCOC(=O)c1nc(Cl)c(Cl)c(N)c1Cl`: -0.187; `COc1ccc(-n2nc3ccccc3n2)cc1`: 0.249. Regarding `O=C(NNS(=O)(=O)c1ccccc1C(F)(F)F)c1cccc(S(=O)(=O)Nc2ccccc2Cl)c1`, the z-score was found to be 0.213. Next, `O=C(O)CSCNC(=O)C12CC3CC(CC(C3)C1)C2`: 0.558; `Cc1ccc(-c2nc(C)sc2CC(=O)Nc2cccc(C)c2C)cc1`: -0.072.

With `COc1ccc(NC(=O)c2ccc(Br)o2)c([N+](=O)[O-])c1`, the z-score is -0.122. Next, `Cn1ccnc1SCC(=O)c1cccc(Br)c1`: -1.32; `CC(C)C(=O)Nc1ccc(C(=O)NNC(=O)CCCOc2ccc(Cl)cc2Cl)cc1`: -0.172. Take `Cc1cc(C)cc(N(CC(=O)N2CCN(c3ccccc3)CC2)S(=O)(=O)c2c(C)noc2C)c1`: the z-score is -0.0998. The result for `Clc1ccc(-c2nnc3cccc(Cl)n23)c(Cl)c1` reads -0.181.

For the compound `CC(=O)Nc1ccc2c(c1)C(=O)N(C1CCCCC1)C2=O`, the z-score was -0.706.
